Laboratory results taken from publication PMC5708895, “Time-gated detection of protein-protein interactions with transcriptional readout” (eLife, 2017).

Target: T1, β2AR-eLOV-TEVcs-FLAG-GAL4-V5 (UniProt P07550)
T1 construct: also called P6; β2AR SPARK TF component; source: HEK293T, transiently transfected, in cells
Assay: SPARK with FACS and RT-qPCR (model selection)
Details: partners not purified

B1: Rat-β-arrestin2-HA-TEVp Δ[…] (natural protein)
chain: not shown
notes: also called P4; P5
fold enrichment by FACS of cells with the matched pair over cells with the mismatched pair (β2AR-calmodulin): 51 fold
